Hit rate of the full screen: of about 350,000 compounds, about 9,900 (2.8%) were called active. The shares of active, inactive and inconclusive entries below differ from those in the screen. Calls follow the shape of the dose curve; as a rule, active = well fitted activation curve with a large enough effect; inconclusive = small, poorly fitted or top-dose-only effect; inactive = no such curve, though single readings can be large or run the other way. Potencies of inconclusive entries are left out as doubtful fits.
Experiment: A quantitative high throughput screen for small molecules that induce DNA re-replication in MCF 10a normal breast cells. Also: nearly all actives have a fitted effect of over 50% in size. As to activity, positive = re-replication: % of control where 0% means no effect.
Details: MCF 10A DNA re-replication, Hoechst nuclear intensity, 48 h; activity, positive = re-replication: at 46.1 µM (top of the series)
Potency is read from the fitted curve at half-maximal effect; tags tell the direction and shape of the fitted curve.

SMILES | Potency | activity, positive = re-replication
COc1ccc(N2C(=O)CS/C2=N\C(=S)Nc2ccccc2)cc1 | inactive | 
Cc1ccc(-c2cc(C(=O)NCCCN3CCOCC3)no2)cc1 | inactive | 
O=c1c(Cl)c(NCCCO)cnn1-c1nc2ccccc2[nH]1 | active: 2.91 µM | 
COc1ccc2nc(SCC(=O)NC(C)(C)C)[nH]c2c1 | active: 8.2 µM | 
Cc1nccn1CC(O)Cn1c2ccccc2c2ccccc21 (stereo not given) | active: 20.6 µM | 
COc1cc2c(C(=O)N3CCN(c4cccc(Cl)c4)CC3)cn(C)c(=O)c2cc1OC | inconclusive [activator, single point] | 
COc1cc(NC(=O)CC(C)S(=O)(=O)c2cc3c(cc2C)NC(=O)CO3)cc(OC)c1OC (stereo not given) | inconclusive [activator, single point] | 
CC(=Nc1ccccc1)C1=C(O)C(Cc2ccccc2)NC1=O (stereo not given) |  | inconclusive: 69.4% [activator]
CCOC(=O)c1cc2c(nc1C)-c1cc(Cl)cc(Cl)c1OC2O (stereo not given) | active: 18.4 µM | 
CCOC(=O)c1sc(NC(=O)CSc2nnc(Cc3ccccc3)o2)c(C(=O)OCC)c1C | inactive | 
Cc1ccc(NC(=O)c2ccc(S(=O)(=O)N3CCC(C)CC3)cc2)nc1 | inactive | 
COc1ccc(CCNC(=O)c2cnn(-c3ccc(C)c(C)c3)c2NC(=O)c2ccco2)cc1OC | inconclusive [activator, single point] | 
CC(C)(CNC(=O)c1cccc(S(=O)(=O)Nc2ccc(Br)cc2)c1)N1CCOCC1 | inconclusive [activator, partial curve, poor fit] | 
Cc1cccn2c(=O)c3cc(C(=O)NCC4CCCO4)c(=N)n(Cc4ccc(F)cc4)c3nc12 (stereo not given) | active: 1.84 µM | 
COCCNC(=O)CSc1nc2ccc(N3CCOCC3)cc2c(=O)n1CCc1ccccc1 | inactive | 
Cc1ccn2c(c1)nc(=O)c1cc(S(=O)(=O)N3CCCCC3)ccc12 | inactive | 
O=C(c1cc(COc2cccc(C(F)(F)F)c2)on1)N1C[C@@H]2CCC[C@H]1C2 | inconclusive [activator, single point] | 
Cc1ccsc1C(=O)N(c1nc2ccccc2s1)c1c(C)cccc1C | inconclusive [activator, partial curve, poor fit] | 
CC1C(c2ccccc2)=[N+]([O-])C2(CCCCC2)N1O (stereo not given) | inconclusive [activator, partial curve, poor fit] | 
CCOc1ccc2nc3c(cc2c1)CN(CCOC)C(=NCCOC)S3 | inconclusive [activator, partial curve, poor fit] | 

— PubChem BioAssay AID624296 (National Center for Advancing Translational Sciences (NCATS), 2012)
